Here are results for 93 sequences from publication PMC10726135.

Some of the results follow. At the low end of the ranking the order means little. The protein was read in a cell extract, so binding may be indirect.

This experiment has as its target T1, HNF4alpha8 (COS-7 nuclear extract) (UniProt P41235-5).
T1 sequence: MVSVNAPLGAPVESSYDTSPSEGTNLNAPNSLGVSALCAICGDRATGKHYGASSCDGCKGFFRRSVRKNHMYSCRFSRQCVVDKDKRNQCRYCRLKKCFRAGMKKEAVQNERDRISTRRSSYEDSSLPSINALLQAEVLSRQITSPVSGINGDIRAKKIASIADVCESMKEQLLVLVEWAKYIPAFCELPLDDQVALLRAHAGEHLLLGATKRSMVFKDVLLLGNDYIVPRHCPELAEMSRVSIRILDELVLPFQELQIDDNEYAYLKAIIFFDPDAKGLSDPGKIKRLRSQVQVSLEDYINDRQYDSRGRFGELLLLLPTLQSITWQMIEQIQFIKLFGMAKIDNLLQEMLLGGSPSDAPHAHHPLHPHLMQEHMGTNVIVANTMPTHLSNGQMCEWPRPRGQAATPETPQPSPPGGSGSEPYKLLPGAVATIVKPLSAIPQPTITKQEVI
Briefly: protein-binding microarray. As to conditions: COS-7 nuclear extract on double-stranded Agilent 4x180k PBM; binding buffer, salt, pH and temperature not given; high values mean tight binding; double strand, one strand shown; sequences stand for … in …GCCTAGGGAGATTAGAGTATCGGTCGA
In the case of CTGGGGTCAATAGTTGTGTAAATAGCTCAG, the binding signal (log2 normalized intensity) is 1.17.
Turning to CAAACAAGTCAATGAGCATTTCACAATTCG, the binding signal (log2 normalized intensity) is -1.2.
As to TCTCTTTGTTGACATCTGCTTCCAAAGAGC, the binding signal (log2 normalized intensity) turned out to be 0.456.
For the sequence GCAGCGAGGACAACCAGAGGTCACTTTTAT, the binding signal (log2 normalized intensity) is 3.02.
Turning to CAATCCTGGAGAAGGAGCACCAATGACCTT, the binding signal (log2 normalized intensity) was determined as 4.02.
Then CGATATTAATGGTGACCCCTCAGTTTTTCT, with 3.38; and TGGCCTGGGAACTTAGCGATTTGGAACCCA, with 1.34.
For TTGCCCTTTCCTAGACGTAAGACAACATCT, the binding signal (log2 normalized intensity) is 1.12.
With GCTGACTGGTTGGAATTCCAGTGTTCACAT, the binding signal (log2 normalized intensity) was found to be 1.73.
For GGAGGCTGAGGTGGAAGGATCACCTGAGTC the value was -0.947; for GCGGCGCTGACCCCGGGAGCAGCATGGCCC, 2.54.
Then TGCATAATGGAGCAAAGGTCATCCTGGGCT, with 5.12; and AGAGCAATCATGGGCCCACAGATGATCAAA, with -1; and ACAAAAACCAAAGGTCACTTCGCATTTCCA, with 4.02.
Then TAAAAGGTCCAGAGTTCACTGCAGGCTGGG, with 3.73; and GGCGCAGTCCTCTCTCGCGAGAGCCGAAGT, with -1.33; and CAGGTCAAAAGTTCAAACTTTATTTGATGA, with 3.81.
Regarding TAATCTTCCTTCGGGATTATGGTAGGCAGC, the binding signal (log2 normalized intensity) was -0.922.
For ACCTTTAAGCCTATAGTTTCTGTTTTGATC the value was 2.09.
For TTTAAAGTATCCCATCCATTTCCCATCCCC the value was 3.52; for CAGTGTTTGCTTTAGATTTTCTCACTCTAA, -0.0636; for AGCATTGTGCTGAAAAGACTTCACAATCAA, -1.32.
Turning to GAAAGGGCAGAATCTAGGATAACTCTAGTG, the binding signal (log2 normalized intensity) was -1.38.
Then TTGCAGGCTGATAGGCAGAAGGGACTAGCC, with -1.3; and TGGACTCTGACCCATTCCTTCTCACCGGGT, with 4.55.
In the case of GAACGGGTCAAGAGGGACAAAATGCCCAGG, the binding signal (log2 normalized intensity) is -1.26.
For TTAGGCTGATGCCCTTTGGATTTAGGCAGT the value was 3.84; for GCCTGAACAAACATGAGGGACTGGGAAGAG, -1.34; for TTTGAACATTTTAACACAGGACAAATCAAG, -0.565.
Regarding GAGACTGGAGAGACCAAAGGGTGAAATAGG, the binding signal (log2 normalized intensity) is -0.126.
Consider TGCTAGTAAGGGGAGGAGCTGAAACAGTCT, for which the binding signal (log2 normalized intensity) is -1.23.
For ACCCCACGGAGCTGCCTCACATGAGCTAGA the value was -1.07; for CCCAGACGCAGGCCTGCAAGCTCCTGGTTG, -1.23; for AACGACCCTTGCTCTGTTTTCTGACGCAAC, 0.868.
For GGCCCAAGATAAAGGGACAGGGGTCATCAG the value was 3.62; for CTCTCTCTCCTAACTATGGTCACGCGGCCA, -1.07; for AGAAAGTGAGGAATGCAACCACACCAACAT, -1.33.
For AAAGGTTGGGGGTGGGGAGGAAGCAAAATT the value was -1.29; for AGGCCGGGCCTCAAGGGAATCTGCTGTAAT, -1.14.
With GGGTTAGGCCTTTAGAGGATTTACTTATAC, the binding signal (log2 normalized intensity) came to 0.821.
Then CTGGTGCTGCTACTTTAGCTGCCAGAGGTT, with -0.834; and TCTTTTGACCTTTGCCTCATTCTTATTGCC, with 5.61; and CGGCCTTTCCCGGCTGCCTAAGCACTTGGG, with -1.35.
With CTGAAGAATTTGGACTTTGCACTAAAAGCC, the binding signal (log2 normalized intensity) was 7.57.
Then AGCATCCCTCGGGCCGGGAAACGCCCTCGG, with 0.186; and CCTTGCCTTAAGAGCAGTCTGCTCAAGTCT, with -1.34; and TGGCACACAGAGGACGTCAGGCAGAGAGGG, with -1.2.
For CTGATGGCTGCTTCACACAAACATCACCTA the value was -1.14; for CGGGTCACGTGCCGCTGCGGGTCACGTGTC, 2.04.
Then CCTCCAACTATGCTAAGAATGCGAACCATT, with -1.35; and GTAAGTATGCTCACTGACCTCTGCCCTACT, with 5.23.
For ACTACCCCTGCCTAAACAAGGCAGACTTGG, the binding signal (log2 normalized intensity) was -1.28.
Then AACTTCCTCCTCCTTGGCTCTCCCCACTTA, with 2.5.
Then AAGGTCAGCAAGCCTGGAGTTCTGATGTTC, with 0.91; and GACTTGACAAAGGTCATTCATGTGCAGGTT, with 3.41.
With AAGGAATTTACTGCAGTCAGGGGTTAGGCC, the binding signal (log2 normalized intensity) worked out at 0.321.
For GCGCGGGGCGCCTCCCGGAGGACCCGACCG the value was -1.23; for CCCAAATGCAAACAGCAGCCACATTCCATG, -1.21; for TGCGCAAGTCCCAGAAGTTCTAAGGTGGGA, -0.458.
In the case of GGTGATGAGTTCTTATCTAGGTAAGTATAG, the binding signal (log2 normalized intensity) is 1.18.
Then TAAATCAGAAGAAAAAGGTAAGGAGATAAG, with -1.35; and TTGCCTTATTTGAACACAGTTCGAACAGTT, with 0.739.
In the case of CCCGCTCCACTCCGGGCGATCCGGGCTCCG, the binding signal (log2 normalized intensity) was -1.31.
Turning to AGGAAAGTCTCCCTCCCTTTGATCCCACAC, the binding signal (log2 normalized intensity) amounted to 3.2.
For CAAGAATCTTGATTACTATAGGGCAAATGG, the binding signal (log2 normalized intensity) came out at 1.72.
In the case of AGGTTTGATTTCAGCATGTTTAAATGCTGA, the binding signal (log2 normalized intensity) worked out at 1.54.
Regarding ATTTTGGAATGTCGCATAGCTCCTGGCTGG, the binding signal (log2 normalized intensity) was -1.33.
GTTGCTGAAGGGCAGGGTTGGCTGTGGCAA: the binding signal (log2 normalized intensity) was -0.542.
Regarding GATATTGGCCAAAGGGCACAAGAGGAATTG, the binding signal (log2 normalized intensity) came out at 2.4.
AGGAATTTTAAAAGTATACTATATTTGTCC: the binding signal (log2 normalized intensity) came to 1.46.
Consider ATGTTTGCCGACCTCCTGACTAAAGTTCAT, for which the binding signal (log2 normalized intensity) amounted to 3.42.
Then TTGCACTGCAAAGAAGTCAAACTTTGGACC, with 7.1; and TTCTGCTGCATTCTATTGGTCAAAGTAAAT, with 1.05.
Then AGGGATCTTTGCACTTGATGTTCCCCCTCC, with 4.51; and GGGCAAGAAAGGGGTCAGCAAAAATAGCCA, with -1.38.
Take ATCAGTATCCCAGTTCTGGATACTGATTAC: the binding signal (log2 normalized intensity) was -1.27.
CACACATTAGCTTCCCGGCTGTCACAGCCT: the binding signal (log2 normalized intensity) is -1.2.
Then AGGTTATTCTTTCCCCTCCCTTCCACCTTT, with 3.91; and CTGAATGACCACATGCCCTCAGTACAGGGC, with 1.14; and CCTGATTGGTCATACTTGACCCACAGCTAG, with 2.44.
On to ATGCAAACACCTACATTCAAATCCTTGCTC, for which the binding signal (log2 normalized intensity) was -1.28.
Then TTTGCCCTGTCAGTCTCTCAATGATTGACA, with -1.2; and CCTCCCTCCATGCTGTAGATTGTGGAATGT, with 1.54; and GCAAAGCCAATCTGCTTAAAGGCAAAGTCC, with 4.54.
AATCCTCAAAAATGCTTTACAAGGTGGTTG: the binding signal (log2 normalized intensity) was found to be 1.44.
Regarding AGACTTTGACCTCTGCTAGGTTTGGGTAAG, the binding signal (log2 normalized intensity) turned out to be 6.12.
For the sequence CGCATCTGAAGATAAGAGAAGTTGCTCTTT, the binding signal (log2 normalized intensity) was found to be 2.63.
In the case of TCTCACTGGATGTGTACCTCATCTTCTTTC, the binding signal (log2 normalized intensity) turned out to be 1.25.
For GGTTGGGGGTGGCTAATTACATCCAGAGTG the value was -0.357; for AGTATCCGCCTTCACTCCCCTGACAGCATG, 1.87; for CCCGGAGCGGAGCATCCCTCGGGCCGGGAA, -1.23.
In the case of GTTCCAGTTATGTTCTCTGTACGGAAGGCC, the binding signal (log2 normalized intensity) came to 0.953.
Consider CTGCTTCAGTTTTGCCATCAGCTCCCTCCC, for which the binding signal (log2 normalized intensity) is 2.53.
